The RNAGym collection of RNA variant scans (doi:10.1073/pnas.2313332121)
This sample is rich in variants without activity.

B1: TPR 5TU (parent)
chain: GGAUCUUCUCGAUCUAACAAAAAAGACAAAUCUGCCACAAAGCUUGAGAGCAUCUUCGGAUGCAGAGGCGGCAGCCUUCGGUGGCGCGAUAGCGCCAACGUUCUCAACUAUGACACGCAAAACGCGUGCUCCGUUGAAUGGAGUUUAUCAUG

Variants of: B1
Test: polymerase ribozyme fitness, log enrichment relative to wild type (log ratio); higher = more active; in vitro selection for triplet polymerase activity
Summary of the method: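 Genotype fitness is the logarithm of its enrichment divided by wild-type enrichment, using inverse-variance-weighted averages of replicates. That logarithm is base 2. Enrichment was measured by Illumina sequencing of input and output libraries from one triplicate in vitro selection round, with frozen incubation at −7 °C, on PCR-built, transcribed mutant libraries of each subunit of a heterodimeric triplet polymerase ribozyme, retaining genotypes with ≥10 input reads and ≥1 read per output.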

Row | Variant | polymerase ribozyme fitness (log ratio)
1 | U55C C87U C103G G140A | ≤ -4.2
2 | U55G G68U C96A A98U | ≤ -4.2
3 | C54G U146G | -2.99
4 | U55G G59A G83A A98C C116G U127G | -4.04
5 | U55A C87A C108G | ≤ -4.2
6 | U55A C85U C103U | -0.7
7 | U56A A60U U61A U77C G84U C96G U101G G136U A142G | ≤ -4.2
8 | C54U A73G G83U C95G G100U U135A | ≤ -4.2
9 | C54U U90C G94A C131U | ≤ -4.2
10 | U55A U135G | ≤ -4.2
11 | C54U A89U G92A U102G | ≤ -4.2
12 | U55C G71A C93A A107U G124A U134G | ≤ -4.2
13 | C54U C87A C103U A120G | ≤ -4.2
14 | U56A A107U | -2.87
15 | C54U A91G C93U G126A G141U U146A | ≤ -4.2
16 | U55A C79U G94C U146A | ≤ -4.2
17 | U56A A60C G88C C95U U139G G140A | ≤ -4.2
18 | U55C C57U G94A C129U A142C U146C | ≤ -4.2
19 | U55G C72U A138C | ≤ -4.2
20 | C54G G59A C76A C85G A121C C123A U127G G140C G143U A150C | ≤ -4.2
21 | U56A C79U A91C C96A | ≤ -4.2

Row | Variant | polymerase ribozyme fitness (log ratio)
22 | U55A G62U G83U U90G C118U | ≤ -4.2
23 | U55G A66G A107G | ≤ -4.2
24 | U56A C79A G141A | ≤ -4.2
25 | U55G C69U U78A A91U C93U G141A | ≤ -4.2
26 | U55A C63G C93G C114A | ≤ -4.2
27 | U55A C69G G83A C99U A115U U151A | ≤ -4.2
28 | U55G C96U C108G G152U | ≤ -4.2
29 | U55C G74C G124A | -4.12
30 | U55G A66U G94A | ≤ -4.2
31 | C54G C99G G136U | -3.14
32 | C54U C76U G83A A110G A142U | ≤ -4.2
33 | U55A G59A C99G C129U A147C | ≤ -4.2
34 | C54U A98G C108G | ≤ -4.2
35 | C54U G58C C69A A98G A115G C123U G152U | ≤ -4.2
36 | U55A A64C G86U | ≤ -4.2
37 | U55G G83A A115C C123U G136U | -2.92
38 | U55C C85U G88U G126U U139G | ≤ -4.2
39 | C54G G68U C87A U104G | ≤ -4.2
40 | U55C C93G | -3.57
41 | U55A C85A G141C | -1.86
42 | U55A C87U A91C | ≤ -4.2

Row | Variant | polymerase ribozyme fitness (log ratio)
43 | U55G A73G U104A C116A U134G | ≤ -4.2
44 | U55A G86A G94U A107G C125U | ≤ -4.2
45 | C54U U55A G86A C116G | -2.2
46 | U55A C85G A122G A138C | ≤ -4.2
47 | U55A U139A | -4.05
48 | C54U C75G A91G C96A | ≤ -4.2
49 | U55A G80C | ≤ -4.2
50 | U55G G65U G84U C85U G86A A121U | ≤ -4.2
51 | U56A C57U C76G A91G G143U U145G | ≤ -4.2
52 | C54G C87A C131G U151C | ≤ -4.2
53 | C54G G94U C149G | ≤ -4.2
54 | C54U A122U | 0.0261
55 | U55G G94A | -1.43
56 | C54U C76A A91G G141C U151G | ≤ -4.2
57 | C54G G81A C85A U90G G94A | ≤ -4.2
58 | U55G G58C C76U C85U C149A | ≤ -4.2
59 | U55A U101G A107G A138C G141A | ≤ -4.2
60 | C54U G92U | -0.757
61 | C54U C57G G59A C63U C79A U82C C99U | ≤ -4.2
62 | U55G G88U A91U C116A | ≤ -4.2
63 | U55A C76A | -0.81

Row | Variant | polymerase ribozyme fitness (log ratio)
64 | U55A U61C G94U | ≤ -4.2
65 | U55A G70C G92U A119U | -3.25
66 | C54G U55A G58U | 0.0801
67 | U55G G67C U78G G83U C93A U102A A121C | ≤ -4.2
68 | U55A C85A C87G | ≤ -4.2
69 | U56A A64U A89C A150G | ≤ -4.2
70 | C54U G71A C96G U148G | ≤ -4.2
71 | U55A U151G | ≤ -4.2
72 | C54G U56A G68U G92C A115G U145C | ≤ -4.2
73 | C54G C87U U148A | ≤ -4.2
74 | U55A U56A G71U U82A G86A C129U A150G | ≤ -4.2
75 | U56A A113U | -1.87
76 | C54U G83A G117C G140A | ≤ -4.2
77 | U55A A89C | -0.409
78 | U55A G88U | -4.14
79 | U55G U77A C87U G92C A98G C131U A138C | ≤ -4.2
80 | U55A U148C | -1.05
81 | U55A U102C C129U C131U | ≤ -4.2
82 | C54U U104G | -1.21
83 | C54U C79G G83A A106U C125G | ≤ -4.2
84 | C54G C95G A107U C108G G143A U145C | ≤ -4.2
